± gives the uncertainty stated by the source. The sequences are guide strands of siRNAs; only the seed at positions 2 to 7 varies.
What was measured:
[1] = test system: 3LL; assay: cell viability relative to siNT1 control; higher = less toxic; settings: concentration: 10 nM; 96 h; Mus musculus;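 further: Luminescence-based viability of cells reverse transfected in 384-well plates with lipid-complexed siRNAs built on a non-toxic 19mer backbone whose passenger strand carries 2′-O-methyl groups at positions 1 and 2, triplicates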
[2] = test system: H460; assay: cell viability relative to lipid-only control; HeyA8 human ovarian and H460 human lung cancer; M565 mouse liver and 3LL mouse lung cancer; siNT1 is a non-toxic control siRNA; higher = less toxic; settings: concentration: 10 nM; 96 h; Homo sapiens
[3] = test system: HeyA8; assay: as above; settings: concentration: 10 nM; 96 h; Homo sapiens
[4] = test system: M565; assay: as above; settings: concentration: 10 nM; 96 h; Mus musculus
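Wherever cell viability relative to lipid-only control is given: reverse lipid transfection in 384-well plates, in triplicate, of duplexes on a non-toxic 19mer backbone with passenger strand 2′-O-methylated at positions 1 and 2, luminescence viability read-out.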

Sequence	cell viability [1]	cell viability [2]	cell viability [3]	cell viability [4]
UUUGCCCACAUGUAAACCAAA	38.5 ± 6%	57.2 ± 6.2%	79.4 ± 5.5%	46.6 ± 8.3%
UUCACCCACAUGUAAACCAAA	34.9 ± 5.5%	60.4 ± 8.4%	67.3 ± 3.3%	63.4 ± 12%
UACUGGGACAUGUAAACCAAA	55.5 ± 5.7%	68.8 ± 5%	5.01 ± 0.49%	34.7 ± 2%
UACCCGAACAUGUAAACCAAA	79.2 ± 4.3%	60.2 ± 6.4%	73.7 ± 5.4%	44.9 ± 5.3%
UCUCCGCACAUGUAAACCAAA	45.2 ± 5.7%	36.9 ± 2.1%	55.3 ± 2%	44.6 ± 5.4%
UCCUACGACAUGUAAACCAAA	91 ± 15%	64.3 ± 2.8%	90.4 ± 3.9%	78.7 ± 5.5%
UUCGAUAACAUGUAAACCAAA	105 ± 18%	79.5 ± 19%	93.7 ± 11%	101 ± 16%
UGUCAAUACAUGUAAACCAAA	75.1 ± 13%	64.6 ± 6.6%	96.6 ± 5%	29.3 ± 8.6%
UAAGUAGACAUGUAAACCAAA	83.6 ± 13%	88.6 ± 15%	75.8 ± 13%	75.2 ± 12%
UUUUGGCACAUGUAAACCAAA	16.1 ± 0.33%	40 ± 2.4%	69.1 ± 2.8%	22.1 ± 4.4%
UGGGUUCACAUGUAAACCAAA	91.1 ± 9.3%	35.4 ± 3.5%	31.3 ± 2.5%	38.2 ± 10%
UUCUAGCACAUGUAAACCAAA	26.5 ± 7.5%	37.8 ± 7%	35.7 ± 5%	53.4 ± 7.6%
UAUUUCCACAUGUAAACCAAA	10.4 ± 1.6%	51.5 ± 1.7%	42.4 ± 5%	34.5 ± 3.8%
UAGAAAAACAUGUAAACCAAA	83.8 ± 12%	68.6 ± 6.1%	84.6 ± 3.7%	74.8 ± 6.5%
UGUUAGGACAUGUAAACCAAA	27.7 ± 12%	60.2 ± 3.9%	41.3 ± 9.7%	23.8 ± 4.2%
UCAUAUAACAUGUAAACCAAA	97 ± 31%	36.1 ± 4.6%	88.9 ± 3.6%	64.3 ± 14%
UGAUCGUACAUGUAAACCAAA	31.7 ± 5.5%	56 ± 6.8%	54.4 ± 2.9%	30 ± 5.5%
UCUAAAUACAUGUAAACCAAA	100 ± 16%	62.3 ± 8.8%	94.9 ± 16%	74.7 ± 23%
UACCUGUACAUGUAAACCAAA	38.7 ± 11%	49.6 ± 2.4%	38.9 ± 2.3%	24.1 ± 6.2%
UACAGAAACAUGUAAACCAAA	85.4 ± 11%	85.7 ± 6.3%	88.2 ± 8%	46 ± 8.8%

Sequence	cell viability [1]	cell viability [2]	cell viability [3]	cell viability [4]
UCAGCGAACAUGUAAACCAAA	99.4 ± 18%	74.1 ± 5.8%	77.8 ± 14%	75.5 ± 2.9%
UGCUGUAACAUGUAAACCAAA	75.9 ± 11%	94.7 ± 25%	70.2 ± 7.3%	17.8 ± 2.2%
UUAGAAGACAUGUAAACCAAA	92.2 ± 8%	107 ± 10%	95.7 ± 9.6%	94.5 ± 14%
UGACGCGACAUGUAAACCAAA	86.1 ± 5.2%	71.1 ± 13%	102 ± 10%	65.1 ± 13%
UCGGGCGACAUGUAAACCAAA	84.2 ± 23%	41.7 ± 4.9%	37.2 ± 4.1%	47.8 ± 3.5%
UGAGAUCACAUGUAAACCAAA	32.7 ± 8.4%	62.3 ± 4.8%	72.3 ± 0.99%	18.5 ± 3.6%
UAGCGAGACAUGUAAACCAAA	95.5 ± 9.8%	62.6 ± 1.4%	83.4 ± 4.9%	43.9 ± 3.1%
UGACCACACAUGUAAACCAAA	17.5 ± 0.26%	32.7 ± 5.7%	37.4 ± 2.4%	7.18 ± 2.5%
UCGUCCCACAUGUAAACCAAA	23.4 ± 7%	39 ± 0.85%	28 ± 2.5%	4.29 ± 0.29%
UAGCUCCACAUGUAAACCAAA	51.6 ± 2.9%	43 ± 0.56%	38.5 ± 3.5%	23.8 ± 6.5%
UGGGCCGACAUGUAAACCAAA	32.2 ± 3.4%	16.4 ± 5%	3.33 ± 0.35%	22.6 ± 4.1%
UUUACGGACAUGUAAACCAAA	96 ± 3.4%	98.5 ± 10%	103 ± 1.8%	90.4 ± 9.4%
UAGAUCGACAUGUAAACCAAA	79.4 ± 5.1%	76.4 ± 9.9%	83.3 ± 5.6%	49.9 ± 5%
UCAAGAUACAUGUAAACCAAA	58 ± 8.7%	49.5 ± 14%	71.5 ± 9.5%	35.7 ± 6.4%
UCGGCGAACAUGUAAACCAAA	94.7 ± 5.9%	51.7 ± 5.2%	58.8 ± 1.9%	45.8 ± 6.2%
UUGGAAAACAUGUAAACCAAA	92.7 ± 9.3%	103 ± 17%	86 ± 9.1%	79.9 ± 19%
UAUCCUUACAUGUAAACCAAA	76.7 ± 13%	60.5 ± 10%	24.8 ± 4.9%	90.4 ± 10%
UAGUUCCACAUGUAAACCAAA	6.46 ± 1%	16.6 ± 1.7%	12.8 ± 0.91%	16.8 ± 1.9%
UUCCCUAACAUGUAAACCAAA	101 ± 12%	80.6 ± 8.6%	94.8 ± 3.6%	87.7 ± 11%
UGCCUGGACAUGUAAACCAAA	33.6 ± 11%	27.4 ± 3.4%	24.3 ± 4.1%	37.7 ± 4.9%

Sequence	cell viability [1]	cell viability [2]	cell viability [3]	cell viability [4]
UUCACGUACAUGUAAACCAAA	103 ± 12%	66 ± 7.4%	104 ± 14%	45.9 ± 14%
UUCUGGUACAUGUAAACCAAA	39.3 ± 5.1%	30.4 ± 4.2%	21.1 ± 2%	20.5 ± 0.41%
UAACACCACAUGUAAACCAAA	54.4 ± 9.4%	43.2 ± 6.1%	28.1 ± 0.83%	49.2 ± 3.7%
UUAGAUAACAUGUAAACCAAA	98.5 ± 15%	92.2 ± 9.4%	95.5 ± 6.2%	102 ± 12%
UCUUGAAACAUGUAAACCAAA	89.7 ± 14%	86.9 ± 8.5%	81.4 ± 5.7%	79 ± 7.7%
UCCAAUAACAUGUAAACCAAA	98.1 ± 31%	84.5 ± 7.2%	82.6 ± 5.2%	68.1 ± 15%
UCCGUUGACAUGUAAACCAAA	94.7 ± 18%	69.4 ± 5.2%	82.4 ± 2.8%	80.5 ± 18%
UCGUAAGACAUGUAAACCAAA	89.1 ± 8.8%	91.1 ± 9.4%	82.8 ± 1.6%	74.8 ± 4.7%
UAAGGCGACAUGUAAACCAAA	75.7 ± 8.9%	65.1 ± 6.3%	70.6 ± 1.5%	44.1 ± 11%
UGAGUACACAUGUAAACCAAA	57.6 ± 4.4%	56.1 ± 9%	29 ± 5.4%	48.7 ± 5.5%
UUAUCCUACAUGUAAACCAAA	26.1 ± 6.7%	55 ± 0.8%	21.7 ± 2.8%	37.5 ± 4.8%
UCCGAGGACAUGUAAACCAAA	88 ± 17%	50.5 ± 4.5%	62.4 ± 7.6%	78.5 ± 13%
UCGCUAUACAUGUAAACCAAA	104 ± 21%	76.3 ± 22%	86.2 ± 7.2%	88 ± 8.7%
UUAUCUUACAUGUAAACCAAA	79.5 ± 10%	70.1 ± 6.8%	78.5 ± 9.4%	70.5 ± 9.7%
UGUAACGACAUGUAAACCAAA	93.6 ± 8.2%	75.4 ± 9.4%	83.5 ± 14%	69.9 ± 6%
UUCGCGGACAUGUAAACCAAA	108 ± 13%	90.2 ± 5.8%	93.5 ± 13%	81.9 ± 7.3%
UACAAACACAUGUAAACCAAA	88.8 ± 8.9%	82.1 ± 12%	70.5 ± 1.8%	37.7 ± 14%
UAUUUAAACAUGUAAACCAAA	112 ± 15%	95.9 ± 3.8%	98 ± 17%	99.5 ± 7%
UCAAAGCACAUGUAAACCAAA	32.8 ± 14%	29.7 ± 4.4%	45.2 ± 1.9%	14.6 ± 3.1%

From the supplement of paper PMC6206098
